Experimental data as given in publication PMC11176168.
These are yes or no findings as the source states them, for the method shown. Binding seen in cells or lysates may run through a third protein. Some binding calls cover weakened binding; strength is not graded here.

The chains behind the UniProt entries cited, without tags or fusion partners. Where a name states a change or a piece, a line headed by the entry shows the natural chain unless it says otherwise. Residues count along the entry.
UniProt Q6UX06: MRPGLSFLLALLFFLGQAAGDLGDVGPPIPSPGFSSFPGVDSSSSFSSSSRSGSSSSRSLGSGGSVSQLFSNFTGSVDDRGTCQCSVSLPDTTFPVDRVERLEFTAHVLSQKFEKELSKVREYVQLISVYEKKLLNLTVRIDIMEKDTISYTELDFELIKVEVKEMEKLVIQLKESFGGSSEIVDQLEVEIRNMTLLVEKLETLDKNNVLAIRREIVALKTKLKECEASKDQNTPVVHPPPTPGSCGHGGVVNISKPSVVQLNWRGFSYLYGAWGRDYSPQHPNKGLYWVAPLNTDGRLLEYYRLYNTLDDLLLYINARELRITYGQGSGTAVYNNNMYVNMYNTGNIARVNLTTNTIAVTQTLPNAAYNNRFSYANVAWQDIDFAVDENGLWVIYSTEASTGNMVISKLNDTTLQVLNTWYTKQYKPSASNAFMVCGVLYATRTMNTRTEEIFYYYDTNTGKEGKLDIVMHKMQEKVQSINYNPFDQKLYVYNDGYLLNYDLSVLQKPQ
Olfactomedin 4 (OLFM4), full-length: residues 21-510 of Q6UX06
OLFM4Δ3 (31–234 aa): residues 31-234 of Q6UX06
UniProt Q99784, residues 17-485: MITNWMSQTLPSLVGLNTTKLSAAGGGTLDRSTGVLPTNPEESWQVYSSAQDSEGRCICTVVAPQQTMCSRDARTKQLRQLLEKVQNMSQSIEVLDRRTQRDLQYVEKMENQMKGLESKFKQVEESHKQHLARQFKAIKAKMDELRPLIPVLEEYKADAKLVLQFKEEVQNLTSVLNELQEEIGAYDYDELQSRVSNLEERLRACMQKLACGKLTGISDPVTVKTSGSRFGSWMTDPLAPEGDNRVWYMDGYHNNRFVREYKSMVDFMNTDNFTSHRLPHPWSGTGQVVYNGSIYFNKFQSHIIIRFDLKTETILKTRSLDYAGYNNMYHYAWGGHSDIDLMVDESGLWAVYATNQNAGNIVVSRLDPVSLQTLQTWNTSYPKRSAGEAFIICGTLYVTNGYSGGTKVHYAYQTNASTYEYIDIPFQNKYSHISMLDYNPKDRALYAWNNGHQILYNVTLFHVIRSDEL

Experiments:
Experiment in all cases: co-IP; U266 cells transfected with HA- or Flag-tagged expression plasmids for 48 h; lysate (1 mg) with anti-HA or anti-Flag antibody (10 μg) and protein A/G magnetic beads overnight at 4 °C, four washes with lysis buffer, Western blot; for LRG1 and OLFM4 also with cells treated with TGF-β
OLFM2, full-length = target: T1, OLFM2, full-length (UniProt O95897)
T1 sequence: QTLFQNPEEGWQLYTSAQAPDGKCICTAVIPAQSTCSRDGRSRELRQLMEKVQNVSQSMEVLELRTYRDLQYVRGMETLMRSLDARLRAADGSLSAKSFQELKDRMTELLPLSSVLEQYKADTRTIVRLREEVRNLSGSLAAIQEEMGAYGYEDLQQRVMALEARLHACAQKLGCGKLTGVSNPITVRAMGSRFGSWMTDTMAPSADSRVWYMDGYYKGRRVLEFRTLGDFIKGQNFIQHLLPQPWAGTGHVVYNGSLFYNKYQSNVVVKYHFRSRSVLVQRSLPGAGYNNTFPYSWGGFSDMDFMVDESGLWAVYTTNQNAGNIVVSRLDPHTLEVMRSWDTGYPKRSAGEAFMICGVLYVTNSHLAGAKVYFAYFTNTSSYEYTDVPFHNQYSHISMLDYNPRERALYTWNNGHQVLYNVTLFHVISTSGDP

OLFM4Δ3 (31–234 aa) = OLFM4Δ3 (31–234 aa) (UniProt Q6UX06)
OLFM3, full-length = target: T2, OLFM3, full-length (UniProt Q96PB7)
T2 sequence: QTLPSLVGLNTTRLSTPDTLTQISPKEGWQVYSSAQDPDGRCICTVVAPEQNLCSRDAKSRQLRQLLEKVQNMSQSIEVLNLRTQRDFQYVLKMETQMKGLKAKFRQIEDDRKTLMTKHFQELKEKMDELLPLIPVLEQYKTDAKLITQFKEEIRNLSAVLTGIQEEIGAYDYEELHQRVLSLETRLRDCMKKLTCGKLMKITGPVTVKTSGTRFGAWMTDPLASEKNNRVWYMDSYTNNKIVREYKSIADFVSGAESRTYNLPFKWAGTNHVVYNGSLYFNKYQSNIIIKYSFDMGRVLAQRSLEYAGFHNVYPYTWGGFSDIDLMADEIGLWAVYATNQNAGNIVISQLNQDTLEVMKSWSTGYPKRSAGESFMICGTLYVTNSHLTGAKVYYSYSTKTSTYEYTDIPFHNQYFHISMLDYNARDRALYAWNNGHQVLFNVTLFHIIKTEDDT

[1] = target: Olfactomedin 4 (OLFM4), full-length (UniProt Q6UX06)
OLFM1, full-length = OLFM1, full-length (UniProt Q99784)

B1: Leucine-rich-alpha-2-glycoprotein 1 (LRG1), full-length (protein, UniProt P02750 36-347)
chain: VTLSPKDCQVFRSDHGSSISCQPPAEIPGYLPADTVHLAVEFFNLTHLPANLLQGASKLQELHLSSNGLESLSPEFLRPVPQLRVLDLTRNALTGLPPGLFQASATLDTLVLKENQLEVLEVSWLHGLKALGHLDLSGNRLRKLPPGLLANFTLLRTLDLGENQLETLPPDLLRGPLQLERLHLEGNKLQVLGKDLLLPQPDLRYLFLNGNKLARVAAGAFQGLRQLDMLDLSNNSLASVPEGLWASLGQPNWDMRDGFDISGNPWICDQNLSDLYRWLQAQKDKMFSQNDTRCAGPEAVKGQTLLAVAKSQ
binding (OLFM2, full-length): no binding | binding (OLFM4Δ3 (31–234 aa)): no binding | binding (OLFM3, full-length): no binding | binding [1]: binds | binding (OLFM1, full-length): no binding
